The results in this text go back to ChEMBL document CHEMBL5606458, “ASAP - ZIKV NS2B-NS3 protease fluorescence single point” (2024).

For this assay, the target named is Nonstructural protein 3 (Zika virus) (UniProt A0A024AXB9).
Setting [1] is: PRVABC59, Concentration 15.0 uM, Number of replicates 1.0.
The mark [2] stands for this setting: PRVABC59, Concentration 50.0 uM, Number of replicates 1.0.
Setting [3] is: PRVABC59, Concentration 10.0 uM, Number of replicates 1.0.

The whole screen tested about 2,700 compounds, of which about 160 (5.9%) showed an effect of 50% or more. This is one part of the list.

Chain of UniProt A0A024AXB9 (A0A024AXB9 as listed by the source): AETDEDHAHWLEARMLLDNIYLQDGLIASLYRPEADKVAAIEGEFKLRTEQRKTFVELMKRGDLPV

One may read the inhibition as the change of the read-out against control, counted positive when it falls. `COc1cc(NC(=O)c2cc(Cl)ccc2NS(=O)(=O)c2ccc(Oc3ccccc3Cl)cc2)c(Cl)cc1Cl`: the inhibition under setting [1] was found to be 35%.

In the case of `c1ccc2c([C@H]3CCN(Cc4cn[nH]c4)C3)c[nH]c2c1`, the inhibition (PRVABC59, Concentration 49.5 uM, Number of replicates 2.0, Standard deviation 2.1709874542503353 %) was -0.564%; the inhibition (PRVABC59, Concentration 99.01 uM, Number of replicates 2.0, Standard deviation 1.6562600473854607 %) is 2.06%; the inhibition (PRVABC59, Concentration 198.0 uM, Number of replicates 2.0, Standard deviation 0.319628886464673 %) is 9.79%.

Consider `O=C(Nc1ccc2c(c1)OCCO2)c1cc(Cl)ccc1NS(=O)(=O)c1ccc(Oc2ccccc2Cl)cc1`, for which the inhibition under setting [1] came out at 63.8%. On to `O=Cc1ccc(N2CCC(C(=O)N(Cc3ccc4c(c3)OCO4)C3CCCC3)CC2)cc1`, for which, under setting [2], the inhibition was found to be 26.1%.

On to `Cc1cc(CO)c2cccc(Cc3cccc(NC(=O)c4nc(C5CCNCC5)oc4C)c3)c2n1`, for which the inhibition (PRVABC59, Concentration 49.95 uM, Number of replicates 2.0, Standard deviation 2.83494201600161 %) is -5.64% and the inhibition (PRVABC59, Concentration 99.9 uM, Number of replicates 2.0, Standard deviation 2.936734747350333 %) was -6.74%. Take `O=C(c1cc(Cl)ccc1NS(=O)(=O)c1ccc(Oc2ccccc2Cl)cc1)N(Cc1cnn(-c2ccccc2)c1)C1CC1`: the inhibition under setting [1] was 16.6%. For the compound `O=C(Cc1cc2ccccc2[nH]1)NCc1cn2ccccc2n1`, the inhibition is -3.51% (PRVABC59, Concentration 49.5 uM, Number of replicates 2.0, Standard deviation 4.515339500308987 %); -2.4% (PRVABC59, Concentration 99.01 uM, Number of replicates 2.0, Standard deviation 4.899993619400904 %); -0.18% (PRVABC59, Concentration 198.0 uM, Number of replicates 2.0, Standard deviation 5.002439458314153 %).

In the case of `CC(C)n1c(CNC(=O)c2cc(Cl)ccc2NS(=O)(=O)c2ccc(Oc3ccccc3Cl)cc2)nc2ccccc21`, the inhibition under setting [1] was 37%. The same measure, in the same setting: the figure for `CC(C)(C)N(Cc1ccccc1)C(=O)c1cc(Cl)ccc1NS(=O)(=O)c1ccc(Oc2ccccc2Cl)cc1` is 22.1%.

For `CCc1noc([C@@H](C)n2cc(C3CCNCC3)c(C)n2)n1`, the inhibition was -2.67% (PRVABC59, Concentration 49.5 uM, Number of replicates 2.0, Standard deviation 3.622774663384733 %); -4.08% (PRVABC59, Concentration 99.01 uM, Number of replicates 2.0, Standard deviation 2.14425328677139 %); -2.88% (PRVABC59, Concentration 198.0 uM, Number of replicates 2.0, Standard deviation 1.4487123594595053 %). Regarding `O=C(NCc1n[nH]c2c1CCCC2)[C@@]1(c2ccc(F)cc2)CCCNC1`, the inhibition (PRVABC59, Concentration 49.5 uM, Number of replicates 2.0, Standard deviation 2.5983721135581743 %) is -2.26%; the inhibition (PRVABC59, Concentration 99.01 uM, Number of replicates 2.0, Standard deviation 1.141586498924627 %) was -0.919%; the inhibition (PRVABC59, Concentration 198.0 uM, Number of replicates 2.0, Standard deviation 1.2082632400057025 %) came out at 2.23%. Take `Cc1nccn1-c1ccccc1CNC(=O)c1cc(Cl)ccc1NS(=O)(=O)c1ccc(Oc2ccccc2Cl)cc1`: the inhibition under setting [1] amounted to 16.8%. On to `CC(=O)N[C@H](C(=O)Nc1cccc(C(N)=O)c1)c1ccc(OCc2ccccc2)cc1`, for which the inhibition (PRVABC59, Concentration 49.5 uM, Number of replicates 2.0, Standard deviation 3.415915417887423 %) turned out to be 1.8%; the inhibition (PRVABC59, Concentration 99.01 uM, Number of replicates 2.0, Standard deviation 2.635484921409503 %) turned out to be 5.01%; the inhibition (PRVABC59, Concentration 198.0 uM, Number of replicates 2.0, Standard deviation 2.5333347847854073 %) was 9.43%.

`CN(Cc1cccc(F)c1F)C(=O)C1CCN(c2ccc(C=O)cc2)CC1`: the inhibition under setting [3] turned out to be 27.6%. For the compound `c1ccc2c([C@H]3CCN(Cc4ccn[nH]4)C3)c[nH]c2c1`, the inhibition reads like this: (PRVABC59, Concentration 49.5 uM, Number of replicates 2.0, Standard deviation 2.8902363210243864 %) 4.45%; (PRVABC59, Concentration 99.01 uM, Number of replicates 2.0, Standard deviation 2.5964245709087583 %) 8.62%; (PRVABC59, Concentration 198.0 uM, Number of replicates 2.0, Standard deviation 2.7683580875493115 %) 16.5%.

As to `O=Cc1ccc(N2CCC(C(=O)N3CCC(c4ccncc4)CC3)CC2)cc1`, the inhibition under setting [2] was 29.4%. As to `CN(Cc1cc([N+](=O)[O-])ccc1Cl)C(=O)c1cc(Cl)ccc1NS(=O)(=O)c1ccc(Oc2ccccc2Cl)cc1`, under setting [1], the inhibition amounted to 15.4%. The same measure, in the same setting: then `NC(=O)c1ccc(Cl)c(NC(=O)c2cc(Cl)ccc2NS(=O)(=O)c2ccc(Oc3ccccc3Cl)cc2)c1`, with 18.6%. With `CC(C)(CO)NC(=O)c1cc(Cl)cc(NC(=O)Cc2cccnc2)c1`, the inhibition reads like this: (PRVABC59, Concentration 49.5 uM, Number of replicates 2.0, Standard deviation 2.8295711588021697 %) -0.77%; (PRVABC59, Concentration 99.01 uM, Number of replicates 2.0, Standard deviation 5.3486046749508604 %) 1.67%; (PRVABC59, Concentration 198.0 uM, Number of replicates 2.0, Standard deviation 2.253441862803108 %) 0.409%.

Turning to `Cc1cnccc1NC(=O)c1cccc(-c2nccs2)c1`, the inhibition reads like this: (PRVABC59, Concentration 49.5 uM, Number of replicates 2.0, Standard deviation 3.1083112380371505 %) -3.05%; (PRVABC59, Concentration 99.01 uM, Number of replicates 2.0, Standard deviation 1.3089777285289714 %) 0.097%; (PRVABC59, Concentration 198.0 uM, Number of replicates 2.0, Standard deviation 1.9614235243118916 %) 0.998%. Turning to `CCc1cc(Br)ccc1NC(=O)C1CCN(c2ccc(C=O)cc2)CC1`, the inhibition under setting [2] is 29.2%.

In the case of `O=C(NCCCc1cccc(C(F)(F)F)c1)c1cc(Cl)ccc1NS(=O)(=O)c1ccc(Oc2ccccc2Cl)cc1`, the inhibition under setting [1] was determined as 11.8%. In the case of `Cc1ccc(NC(=O)c2cc(Cl)ccc2NS(=O)(=O)c2ccc(Oc3ccccc3Cl)cc2)c(Br)c1`, under setting [1], the inhibition was 34.4%. Take `CC(C)Nc1nc2ccc(C(=O)NCc3cnn(C)c3)cc2[nH]1`: the inhibition (PRVABC59, Concentration 49.5 uM, Number of replicates 2.0, Standard deviation 1.8680242324769916 %) was -0.717%; the inhibition (PRVABC59, Concentration 99.01 uM, Number of replicates 2.0, Standard deviation 3.118010703019205 %) was -0.01%; the inhibition (PRVABC59, Concentration 198.0 uM, Number of replicates 2.0, Standard deviation 2.531768976679667 %) was 1.86%. As to `CNC(=O)C1(CNS(=O)(=O)c2ccc(Oc3ccccc3Cl)cc2)CCCC1`, the inhibition is, setting by setting: (PRVABC59, Concentration 49.5 uM, Number of replicates 2.0, Standard deviation 2.282728190546782 %) 0.418%; (PRVABC59, Concentration 99.01 uM, Number of replicates 2.0, Standard deviation 2.1749325678583493 %) 2.65%; (PRVABC59, Concentration 198.0 uM, Number of replicates 2.0, Standard deviation 2.475069295530007 %) 4.84%. `O=C(NCc1ccc(F)c(Cl)c1)c1cc(Cl)ccc1NS(=O)(=O)c1ccc(Oc2ccccc2Cl)cc1`: the inhibition under setting [1] is 34.8%. Still for that read-out and setting: the figure for `COc1ccc([C@H](C)N(C)C(=O)c2cc(Cl)ccc2NS(=O)(=O)c2ccc(Oc3ccccc3Cl)cc2)cc1` is 23.2%. `O=Cc1ccc(N2CCC(C(=O)Nc3nnc(C(F)(F)F)s3)CC2)cc1`: the inhibition under setting [2] came out at 26.5%. On the same count and under the same terms, the figure for `O=Cc1ccc(N2CCC(C(=O)NCCNC(=O)c3ccc(F)cc3)CC2)cc1` is 27%. Consider `O=Cc1ccc(N2CCC(C(=O)N[C@H](CO)[C@H](O)c3ccc([N+](=O)[O-])cc3)CC2)cc1`, for which the inhibition under setting [2] turned out to be 25.6%. Consider `O=C(c1cc(Cl)ccc1NS(=O)(=O)c1ccc(Oc2ccccc2Cl)cc1)N1CCC(Oc2ccccc2)CC1`, for which, under setting [1], the inhibition was 7.01%. Consider `COc1cc(NC(=O)C2CCN(c3ccc(C=O)cc3)CC2)ccc1Br`, for which, under setting [2], the inhibition was found to be 26.1%. In the case of `Cc1nc(Cl)c(NC(=O)c2cc(Cl)ccc2NS(=O)(=O)c2ccc(Oc3ccccc3Cl)cc2)c(Cl)n1`, under setting [1], the inhibition is 19.7%. For the compound `Cc1cc(CO)c2cccc(NC(=O)Cc3csc(Cc4ccccc4)n3)c2n1`, the inhibition by setting is: (PRVABC59, Concentration 49.95 uM, Number of replicates 2.0, Standard deviation 1.5807158675271402 %) 17.9%; (PRVABC59, Concentration 99.9 uM, Number of replicates 2.0, Standard deviation 3.6130638767054974 %) 31.5%.

Regarding `O=Cc1ccc(N2CCC(C(=O)NCC3(N4CCOCC4)CCCCC3)CC2)cc1`, the inhibition under setting [2] was found to be 25.4%. With `O=C(Nc1ccccc1Cc1ccccc1)c1cc(Cl)ccc1NS(=O)(=O)c1ccc(Oc2ccccc2Cl)cc1`, under setting [1], the inhibition was 55.2%. Take `O=C(Nc1ccc(F)nc1Br)c1cc(Cl)ccc1NS(=O)(=O)c1ccc(Oc2ccccc2Cl)cc1`: the inhibition under setting [1] was 22.8%. With `COc1ccccc1N1CCN(CCCNC(=O)C2CCN(c3ccc(C=O)cc3)CC2)CC1`, the inhibition under setting [2] amounted to 26.1%. Take `C[C@H]1CN(Cc2ccccc2)CCN1C(=O)c1cc(Cl)ccc1NS(=O)(=O)c1ccc(Oc2ccccc2Cl)cc1`: the inhibition under setting [1] came out at 18.8%. As to `COc1ccc(NC(=O)C2CCN(c3ccc(C=O)cc3)CC2)c([N+](=O)[O-])c1`, the inhibition under setting [2] was found to be 21.7%.

Regarding `O=Cc1ccc(N2CCC(C(=O)NCc3ccsc3Br)CC2)cc1`, under setting [3], the inhibition was determined as 19.3%.

As for `Cc1c(C(=O)NCC(F)(F)c2n[nH]c3c2COCC3)ccc(O)c1NC(=O)c1ccncc1F`, the inhibition is, setting by setting: (PRVABC59, Concentration 49.5 uM, Number of replicates 2.0, Standard deviation 2.652978286985313 %) 2.12%; (PRVABC59, Concentration 99.01 uM, Number of replicates 2.0, Standard deviation 1.707336801571449 %) 3.79%; (PRVABC59, Concentration 198.0 uM, Number of replicates 2.0, Standard deviation 1.3187168958423232 %) 5.58%. On to `N#CCCN(Cc1cccnc1)C(=O)c1cc(Cl)ccc1NS(=O)(=O)c1ccc(Oc2ccccc2Cl)cc1`, for which, under setting [1], the inhibition was found to be 15.5%. `Cc1cc(N)c2cccc(Cl)c2n1`: the inhibition runs as follows: (PRVABC59, Concentration 49.95 uM, Number of replicates 2.0, Standard deviation 13.811247628155078 %) -6.63%; (PRVABC59, Concentration 99.9 uM, Number of replicates 2.0, Standard deviation 13.70369241109055 %) -1.25%.

As for `Cc1cccc(N2CCN(C(=O)C3CCN(c4ccc(C=O)cc4)CC3)CC2)n1`, the inhibition under setting [2] was 28.4%. As to `CC1(C)C[C@]1(CNC(=O)c1cc(Cl)ccc1NS(=O)(=O)c1ccc(Oc2ccccc2Cl)cc1)c1ccccc1`, under setting [1], the inhibition amounted to 34.1%. On to `Cc1cc(CO)c2cccc(Cc3ccccc3NC(=O)c3cc(C(=O)O)[nH]n3)c2n1`, for which the inhibition is, setting by setting: (PRVABC59, Concentration 49.95 uM, Number of replicates 2.0, Standard deviation 2.0307752573793247 %) 3.65%; (PRVABC59, Concentration 99.9 uM, Number of replicates 2.0, Standard deviation 1.43019497297885 %) 9.98%.

As for `C[C@H](NC(=O)C1CCN(c2ccc(C=O)cc2)CC1)c1ccc2c(c1)OCCCO2`, under setting [3], the inhibition turned out to be 24.8%.

Turning to `N#Cc1c(Cl)cccc1NC(=O)C1CCN(c2ccc(C=O)cc2)CC1`, under setting [2], the inhibition came out at 23.2%. Regarding `CN(Cc1ccccc1Br)C(=O)c1cc(Cl)ccc1NS(=O)(=O)c1ccc(Oc2ccccc2Cl)cc1`, the inhibition under setting [1] came to 32.5%. Same read-out and setting: then `CC[C@H](C)N(Cc1ccccc1)C(=O)c1cc(Cl)ccc1NS(=O)(=O)c1ccc(Oc2ccccc2Cl)cc1`, with 23.6%. With `O=Cc1ccc(N2CCC(C(=O)Nc3cccc(Cl)c3Br)CC2)cc1`, the inhibition under setting [2] was 21%.
